# Data published in PubChem BioAssay (Tox21).
# Where “and” joins values, the source holds several entries; their conditions need not be identical. Equal entries are not always repeated. The inconclusive results got no clear call from the source; some entries with a clear call stand among them for comparison. For some of these results: Potencies of inconclusive entries are doubtful fits and often do not repeat. Calls of active or inactive are those of the source. Unless noted, calls come from the whole dose curve.
# Assays:
# [1] = biological target: Vitamin D3 receptor (Homo sapiens) (UniProt P11473); test: qHTS assay to identify small molecule agonists of the vitamin D receptor (VDR) signaling pathway (AID 743222); conditions: HEK293T VDR-UAS-bla, beta-lactamase FRET ratio, 16 h; note: potency is the fitted concentration of half-maximal effect; for activation: % is set by controls: 0 for no effect and ±100 for the full control effect
# Chain of UniProt P11473 (P11473 whole entry, looked up): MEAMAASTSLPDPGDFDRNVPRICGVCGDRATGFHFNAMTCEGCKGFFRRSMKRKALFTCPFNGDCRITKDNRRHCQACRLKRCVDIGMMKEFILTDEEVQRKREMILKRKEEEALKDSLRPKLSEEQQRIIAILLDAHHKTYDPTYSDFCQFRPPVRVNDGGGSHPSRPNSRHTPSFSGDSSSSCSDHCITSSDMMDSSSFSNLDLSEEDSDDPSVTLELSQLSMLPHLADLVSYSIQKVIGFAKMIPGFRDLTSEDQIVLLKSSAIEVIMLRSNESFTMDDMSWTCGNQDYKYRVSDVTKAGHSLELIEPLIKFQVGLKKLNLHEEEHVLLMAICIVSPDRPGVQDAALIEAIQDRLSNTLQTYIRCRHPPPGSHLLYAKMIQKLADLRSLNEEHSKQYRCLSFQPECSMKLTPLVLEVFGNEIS
# Method in brief: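 Quantitative HTS agonist-mode screen: compounds in DMSO were pin-transferred onto VDR-bla cells and incubated 16 h at 37C, 5% CO2. Reporter activity was detected with LiveBLAzer B/G FRET substrate after 2 h at room temperature.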
# [2] = biological target: Vitamin D3 receptor (Homo sapiens) (UniProt P11473); test: qHTS assay to identify small molecule antagonists of the vitamin D receptor (VDR) signaling pathway (AID 743223; active = well fitted inhibition curve with a large enough effect in the signal ratio in the repeat runs, not every such curve was filed as active; inconclusive = weak or mixed curves, or effect the other way; inactive = no such curve, though single readings can be large or run the other way; the % refers to the signal ratio; note: % is set by controls: 0 for no effect and ±100 for the full control effect); conditions: VDR-UAS-bla HEK293T, beta-lactamase FRET ratio, 16 h; activity change, negative = inhibition: at 61 µM (top of the series) unless noted
# Method in brief: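 Inhibition of agonist-driven VDR signalling is scored in VDR-bla cells: 3 nM final 1alpha,25-dihydroxyvitamin D3 plus compound, 16 h at 37C, then beta-lactamase detection by FRET substrate fluorescence after 2 h.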
# [3] = qHTS assay to identify small molecule agonists of the vitamin D receptor (VDR) signaling pathway - cell viability counter screen (AID 743224; active = well fitted cell-killing curve with a large enough effect in the repeat runs; inconclusive = weak or mixed curves, or effect the other way; inactive = no such curve, though single readings can be large or run the other way; note: potency is the fitted concentration of half-maximal effect; nearly all actives have a fitted effect of over 50% in size)
# Method in brief: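 Viability is measured in the same wells as the VDR-bla reporter assay: after 16 h compound treatment and 2 h substrate loading, CellTiter-Glo is added and luminescence read 30 min later.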
# [4] = qHTS assay to identify small molecule agonists of the NFkB signaling pathway - cell viability counter screen (AID 1159515); note: potency is the fitted concentration of half-maximal effect; nearly all actives have a fitted effect of over 55% in size
# Method in brief: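 Multiplexed viability readout: after the 5 hr compound exposure and 1.5 hr FRET substrate step, CellTiter-Glo reagent went into the same NFkB-bla ME-180 wells; ATP luminescence was measured after 30 min at room temperature.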
# [5] = qHTS assay to identify small molecule agonists of the endoplasmic reticulum stress response signaling pathway (AID 1159516; active = well fitted activation curve with a large enough effect in the signal ratio in the repeat runs, not every such curve was filed as active; inconclusive = weak or mixed curves, or effect the other way; the % refers to the signal ratio; note: % is set by controls: 0 for no effect and ±100 for the full control effect); conditions: ESRE-bla HeLa, ER stress beta-lactamase reporter, 5 h; activation: at 61 µM (top of the series) unless noted
# Method in brief: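 Tox21 10K library screened in quantitative HTS format on ESRE-bla HeLa cells, a beta-lactamase reporter under ER stress response element control; 5 hr treatment, FRET read.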
# [6] = biological target: Bile acid receptor (Homo sapiens) (UniProt Q96RI1); test: qHTS assay to identify small molecule agonists of the farnesoid-X-receptor (FXR) signaling pathway (AID 743220; active = well fitted activation curve with a large enough effect in the signal ratio in the repeat runs, not every such curve was filed as active; inconclusive = weak or mixed curves, or effect the other way; the % refers to the signal ratio; note: % is set by controls: 0 for no effect and ±100 for the full control effect); conditions: HEK293T FXR-UAS-bla, beta-lactamase FRET ratio, 16 h; activation: at 62.6 µM (top of the series) unless noted
# Chain of UniProt Q96RI1 (Q96RI1 whole entry, looked up): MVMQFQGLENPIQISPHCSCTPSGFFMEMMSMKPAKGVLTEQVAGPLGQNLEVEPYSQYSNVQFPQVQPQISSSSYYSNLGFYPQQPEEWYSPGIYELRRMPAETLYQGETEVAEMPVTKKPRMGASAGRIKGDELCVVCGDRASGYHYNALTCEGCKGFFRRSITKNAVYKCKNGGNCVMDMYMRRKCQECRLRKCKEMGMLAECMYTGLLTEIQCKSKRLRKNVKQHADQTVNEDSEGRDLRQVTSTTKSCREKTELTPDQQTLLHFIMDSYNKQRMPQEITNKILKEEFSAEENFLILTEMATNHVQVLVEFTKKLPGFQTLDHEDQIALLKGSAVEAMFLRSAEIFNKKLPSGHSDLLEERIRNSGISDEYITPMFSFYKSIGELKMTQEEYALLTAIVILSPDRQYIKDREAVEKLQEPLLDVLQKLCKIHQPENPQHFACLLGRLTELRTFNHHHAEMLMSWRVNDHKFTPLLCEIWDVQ
# Method in brief: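 Beta-lactamase reporter under UAS control in GeneBLAzer FXR HEK 293T cells (5000/well) measured with LiveBLAzer FRET substrate after 2 h at room temperature. Compound exposure lasted 16 h at 37C.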
# [7] = qHTS assay to identify small molecule antagonists of the vitamin D receptor (VDR) signaling pathway - cell viability counter screen (AID 743225; active = well fitted cell-killing curve with a large enough effect in the repeat runs; inconclusive = weak or mixed curves, or effect the other way; inactive = no such curve, though single readings can be large or run the other way; note: potency is the fitted concentration of half-maximal effect; nearly all actives have a fitted effect of over 50% in size); conditions: VDR-bla HEK293T viability, CellTiter-Glo luminescence, 16 h; viability change, negative = cytotoxic: at 61 µM (top of the series)
# Method in brief: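 Compounds were pinned onto VDR-bla HEK 293T cells together with 1-alpha,25-dihydroxyvitamin D3 at 3 nM final. After 16 h at 37C and 5% CO2 plus the reporter readout, cell viability was measured by CellTiter-Glo luminescence (30 min, room temperature).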
# [8] = qHTS assay to identify small molecule antagonists of the farnesoid-X-receptor (FXR) signaling pathway - cell viability counter screen (AID 743221; active = well fitted cell-killing curve with a large enough effect in the repeat runs, not every such curve was filed as active; inconclusive = weak or mixed curves, or effect the other way; inactive = no such curve, though single readings can be large or run the other way; note: potency is the fitted concentration of half-maximal effect; nearly all actives have a fitted effect of over 50% in size); conditions: FXR-bla HEK293T viability, CellTiter-Glo luminescence, 16 h; activity change, negative = cytotoxicity: at 62.6 µM (top of the series) unless noted
# Method in brief: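 Here viability was scored by luminescence after CellTiter-Glo addition to wells already read for beta-lactamase. Prior treatment: compound plus CDCA (50 uM final), 16 h, 37 C, HEK 293T FXR-bla cells.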
# Tags give direction and shape of the fitted curve or compound fluorescence and quenching.
structure (smiles),measurement,setting,value
CC[C@H]1C[C@@H]2C[C@H]3c4[nH]c5ccc(OC)cc5c4CCN(C2)[C@@H]13,Potency,[1]; activation: at 63.5 µM (top of the series) unless noted,"inconclusive: 47.7 µM [rising, partial curve]"
same,"activity change, negative = inhibition",[2],inconclusive: 23.8%
same,Potency,[3],"inconclusive: 67.4 µM [cytotoxic, single point]"
same,Potency,[4],inconclusive: 60.6 µM [cytotoxic]
same,activation,[5],inconclusive: -4.02%
CCC(C)(c1ccc(O)cc1)c1ccc(O)cc1,activation,[6],inconclusive: 7.63%
same,Potency,[3],"inconclusive: 61.6 µM [cytotoxic, single point]"
same,Potency,[7],"inconclusive: 43.6 µM [cytotoxic, partial curve, poor fit]"
same,Potency,[4],"inconclusive: 0.976 µM [cytotoxic, full curve, poor fit]"
same,Potency,[5],inactive
CNC(C)Cc1ccc2c(c1)OCO2 (stereo unspecified),Potency,[8],"inconclusive: 84.3 µM [falling, single point]"
same,Potency,[3],"inconclusive: 84.3 µM [cytotoxic, single point]"
same,Potency,[4],"inconclusive: 75.8 µM [cytotoxic, single point]"
same,activation,[5],inconclusive: 11.6% [at 78.8 µM]
CCCCCCCCCCCCn1cc[n+](C)c1,activation,[1]; at 63.5 µM (top of the series),inconclusive: 4.42% and inconclusive: 0.415%
same,activation,[1]; at 81.1 µM (top of the series),inconclusive: 0.977%
